Test results from the supplement of paper PMC4967469.
A lower IC50 marks a more sensitive line; fits outside the tested doses are given as limits. For AUC the same curve is integrated over the 256-fold range of doses and scaled to a fraction; values near 1 show little effect. For part of these data: A top dose marked as inferred was derived from the fitted curves, not read from the paper. For part of these data: Where an entry number is given, a second screen of the drug exists; the two often differ.

What was measured:
Experiment in all cases: Viability of human cancer cell lines after 72 h of drug (GDSC screen)
SNX-2112 = compound: CC1(C)CC(=O)c2c(C(F)(F)F)nn(-c3ccc(C(N)=O)c(N[C@H]4CC[C@H](O)CC4)c3)c2C1 [SNX-2112]; details: top dose 2.56 µM
Procedure: (§1)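 Human cancer cell lines in 384-well plates, medium with 10% serum, drug for 72 h over a 256-fold dose range (nine 2-fold or five 4-fold steps up to the top dose). Adherent lines were fixed and stained with the nucleic acid dye Syto60, suspension lines read with resazurin; signal relative to control wells, capped at 0 and 100%. One two-parameter sigmoid per drug and line, fitted in a mixed model over all curves with the slope shared within a line.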

Vinblastine = compound: CC[C@]1(O)C[C@@H]2CN(CCc3c([nH]c4ccccc34)[C@@](C(=O)OC)(c3cc4c(cc3OC)N(C)[C@H]3[C@@](O)(C(=O)OC)[C@H](OC(C)=O)[C@]5(CC)C=CCN6CC[C@]43[C@@H]65)C2)C1 [Vinblastine]; details: top dose 0.1 µM; top dose inferred
Procedure: as §1

Afatinib = compound: CN(C)C/C=C/C(=O)Nc1cc2c(Nc3ccc(F)c(Cl)c3)ncnc2cc1O[C@H]1CCOC1 [Afatinib]
Procedure: as §1

PF-562271 = compound: CN(c1ncccc1CNc1nc(Nc2ccc3c(c2)CC(=O)N3)ncc1C(F)(F)F)S(C)(=O)=O [PF-562271]; details: top dose 2.56 µM; top dose inferred
Procedure: as §1

XMD13-2 = compound: O=C(NC1CC1)c1cccc(-c2ccc3c(NC(=O)C4CC4)n[nH]c3c2)c1 [XMD13-2]; details: top dose 10.24 µM; top dose inferred
Procedure: as §1

[1] = top dose 0.5 µM, screen: GDSC drug entry 1032
[2] = top dose 10 µM, screen: GDSC drug entry 1377, top dose inferred

Cell Line	AUC (SNX-2112)	IC50 (SNX-2112) [nM]	AUC (Vinblastine)	IC50 (Vinblastine) [nM]	AUC (Afatinib; [1])	IC50 (Afatinib; [1]) [nM]	AUC (Afatinib; [2])	IC50 (Afatinib; [2]) [nM]	AUC (PF-562271)	IC50 (PF-562271) [nM]	AUC (XMD13-2)	IC50 (XMD13-2) [nM]
L-428 (Hodgkin lymphoma, suspension)	0.834	1400	0.802	42.4	0.993	> 500	0.992	> 10000	0.993	> 2560	0.981	> 10200
L-540 (Hodgkin lymphoma, suspension)	0.877	2100	0.461	4.96	0.986	> 500	0.974	> 10000	0.954	> 2560	0.903	> 10200
LAMA-84 (chronic myeloid leukaemia, suspension)	0.327	52.4	0.642	15.6	0.954	> 500	0.971	> 10000	0.977	> 2560	0.859	8670
LAN-6 (neuroblastoma, adherent)	0.882	> 2560	0.767	44.2	0.984	> 500	0.979	> 10000	0.956	> 2560	0.97	> 10200
LB373-MEL-D (melanoma, adherent)	0.968	> 2560	0.884	> 100	0.99	> 500	0.987	> 10000	0.884	> 2560	0.99	> 10200
LB771-HNC (head and neck, adherent)	0.783	1370	0.556	9.24	0.982	> 500	0.931	> 10000	0.872	> 2560	0.968	> 10200
LB1047-RCC (kidney, adherent)	0.549	222	0.771	43.3	0.876	> 500	0.671	2000	0.874	> 2560	0.966	> 10200
LB2241-RCC (kidney, adherent)	0.977	> 2560	0.562	9.42	0.607	63.8	0.28	137	0.898	> 2560	0.984	> 10200
LB2518-MEL (melanoma, adherent)	0.513	174	0.831	68	0.985	> 500	0.986	> 10000	0.939	> 2560	0.987	> 10200
LC4-1 (lymphoblastic leukaemia, suspension)	0.55	222	0.932	> 100	0.985	> 500	0.965	> 10000	0.94	> 2560	0.754	3790
LC-1-sq (lung squamous cell carcinoma, adherent)	0.955	> 2560	0.499	6.2	0.883	> 500	0.918	> 10000	0.984	> 2560	0.923	> 10200
